The list shows a part of the results. Repeats are few or missing, and single values can be far off.
The compounds below were run on A2058 (assay: cell count relative to DMSO control; melanoma cells; higher = more viable cells). Settings: library dose: standard library concentration; 72 h.
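Note: cells treated in 1,536-well plates, then fixed and DAPI-stained, with nuclei counted from automated high-throughput microscope images.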

Row | SMILES | cell count [%]
1 | O=C(O)c1ccc(-c2c[nH]c3ncc(-c4ccccc4)cc23)cc1C1CCCC1 + NCC(=O)Nc1ccc(-n2nc(C(F)(F)F)cc2-c2ccc3c(ccc4ccccc43)c2)cc1 [OSU03012] (first compound 0.8 µM, partner dose 5 µM) | 81.7
2 | C[C@@H]1CCN(C(=O)CC#N)C[C@@H]1N(C)c1ncnc2[nH]ccc12 + COc1cc2ncnc(Nc3ccc(Oc4ccccc4)cc3)c2cc1OC [SrcI1] (first compound 5 µM, partner dose 10 µM) | 85.1
3 | COc1cc(Nc2ncc(F)c(Nc3ccc4c(n3)NC(=O)C(C)(C)O4)n2)cc(OC)c1OC [Tamatinib] + NCC(=O)Nc1ccc(-n2nc(C(F)(F)F)cc2-c2ccc3c(ccc4ccccc43)c2)cc1 [OSU03012] (first compound 2 µM, partner dose 5 µM) | 75.6
4 | CC1(C)NC(=O)N(c2ccc([N+](=O)[O-])c(C(F)(F)F)c2)C1=O [nilutamide] + CN(C)S(=O)(=O)c1ccc2c(c1)/C(=C/c1cc3c([nH]1)CCCC3)C(=O)N2 [SU6656] (first compound 5 µM, partner dose 2 µM) | 96.3
5 | COc1cc(Nc2ncc(F)c(Nc3ccc4c(n3)NC(=O)C(C)(C)O4)n2)cc(OC)c1OC [Tamatinib] + CO[C@@H]1[C@H](N(C)C(=O)c2ccccc2)C[C@H]2O[C@]1(C)n1c3ccccc3c3c4c(c5c6ccccc6n2c5c31)C(=O)NC4 [Midostaurin] (first compound 2 µM, partner dose 0.4 µM) | 43.1
6 | O=c1[nH]nc(Sc2ncc([N+](=O)[O-])s2)n1-c1ccc2c(c1)OCCO2 + Nc1nc(F)nc2c1ncn2[C@@H]1O[C@H](CO)[C@@H](O)[C@@H]1O [fludarabine] (first compound 1 µM, partner dose 1 µM) | 111
7 | COc1cc(Nc2ncc(F)c(Nc3ccc4c(n3)NC(=O)C(C)(C)O4)n2)cc(OC)c1OC [Tamatinib] + CC1(C)NC(=O)N(c2ccc([N+](=O)[O-])c(C(F)(F)F)c2)C1=O [nilutamide] (first compound 2 µM, partner dose 5 µM) | 74.1
8 | O=c1[nH]nc(Sc2ncc([N+](=O)[O-])s2)n1-c1ccc2c(c1)OCCO2 + CC(=O)O[C@@]12CO[C@@H]1C[C@H](O)[C@@]1(C)C(=O)[C@H](O)C3=C(C)[C@@H](OC(=O)[C@H](O)[C@@H](NC(=O)OC(C)(C)C)c4ccccc4)C[C@@](O)([C@@H](OC(=O)c4ccccc4)[C@H]21)C3(C)C [Docetaxel] (first compound 1 µM, partner dose 0.0005 µM) | 10.5
9 | O=C(O)c1ccc(-c2c[nH]c3ncc(-c4ccccc4)cc23)cc1C1CCCC1 + COc1ccc(COc2ccc(Cc3cnc(N)nc3N)cc2OC)cc1 [GW2580] (first compound 0.8 µM, partner dose 5 µM) | 91
10 | O=c1[nH]nc(Sc2ncc([N+](=O)[O-])s2)n1-c1ccc2c(c1)OCCO2 + COc1cc(Nc2ncc(F)c(Nc3ccc4c(n3)NC(=O)C(C)(C)O4)n2)cc(OC)c1OC [Tamatinib] (first compound 1 µM, partner dose 2 µM) | 81.2
11 | COc1cc(Nc2ncc(F)c(Nc3ccc4c(n3)NC(=O)C(C)(C)O4)n2)cc(OC)c1OC [Tamatinib] + NC(=O)Nc1cc(-c2cccc(F)c2)sc1C(=O)N[C@H]1CCCNC1 [AZD7762] (first compound 2 µM, partner dose 0.1 µM) | 107
12 | O=c1[nH]nc(Sc2ncc([N+](=O)[O-])s2)n1-c1ccc2c(c1)OCCO2 + Cc1ccc(Nc2nccc(N(C)c3ccc4c(C)n(C)nc4c3)n2)cc1S(N)(=O)=O [Pazopanib] (first compound 1 µM, partner dose 2 µM) | 96.7
13 | CC1(C)NC(=O)N(c2ccc([N+](=O)[O-])c(C(F)(F)F)c2)C1=O [nilutamide] + Cc1ccc(NC(=O)c2cccc(N(C)C)c2)cc1NC(=O)c1ccc(O)cc1 [ZM336372] (first compound 5 µM, partner dose 10 µM) | 103
14 | Cn1cncc1[C@@](N)(c1ccc(Cl)cc1)c1ccc2c(c1)c(-c1cccc(Cl)c1)cc(=O)n2C [tipifarnib] + COC(=O)c1sccc1S(=O)(=O)Nc1ccc(Nc2ccccc2)cc1OC [GSK0660] (first compound 0.05 µM, partner dose 5 µM) | 72.4
